From the supplement of paper PMC11417369
± gives the standard deviation of the averaged measurements. The list shows a part of the results.

The sequences below were run on PfAP2-I AP2 domain 3 (GST-tagged) (assay: gcPBM binding intensity (ln(normalized median fluorescence intensity)); higher = stronger DNA binding).
Summary of the method: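 An Agilent 4 × 180k array of primer-extended double-stranded 36-bp intergenic genomic probes, with negative controls, was incubated for 1 h with GST-tagged P. falciparum DNA-binding domains expressed in E. coli. Alexa488 anti-GST antibody detected bound protein, scanned at 488 nm. Binding intensity is the highest Masliner-normalised natural-log median intensity across replicate spots of either probe orientation.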
“GGTCTTTTTATGATATGTACTTATATAATATTATAT [XGTACX_site6458]” was tested, and the “gcPBM binding intensity (ln)” value was 8.39 ± 0.36.
With “ATGTAGAAGTAATGCACACATATGTATATATATATA [CACACA_site2494]” the “gcPBM binding intensity (ln)” value was 10.9 ± 0.63.
In the case of “AACAGCATGAAGTAAAGTACTAGTTTTATTTATTTA [XGTACX_site1116]”, the “gcPBM binding intensity (ln)” value is reported as 7.31 ± 0.42.
In the case of “AGGAAATTTTTTTTTTTTTTTTTTTTTTTTTTTTAC [TGCATGCA_negctrl_site170]”, the “gcPBM binding intensity (ln)” value is reported as 7.5 ± 0.56.
With “CAAAATATTATGAATTGTACATATTTTAAAACGTTT [XGTACX_site1614]” the “gcPBM binding intensity (ln)” value was 7.54 ± 0.49.
“TGATAAGTATACTAAAGTACATGAAAAATAACTTCC [XGTACX_site6908]” was tested, and the “gcPBM binding intensity (ln)” value was 7.69 ± 0.58.
For “TCCTAATGGTTTAATTGTACAAAAAAAAAAAATATA [XGTACX_site322]”, the “gcPBM binding intensity (ln)” value was 7.64 ± 0.37.
With “ATAGATGTCTTCATATGTACATAAATTCAAGTATAT [XGTACX_site7492]” the “gcPBM binding intensity (ln)” value was 7.79 ± 0.43.
With “TGATTATAAAAGTAGGTGCTACAAAAATTACACATT [GTGCAC_site9530]” the “gcPBM binding intensity (ln)” value was 8.7 ± 0.45.
For “AAAAAATTTTGAAATTGTACATATATAAAAAATATA [XGTACX_site2629]”, the “gcPBM binding intensity (ln)” value was 7.59 ± 0.29.
In the case of “TTTAAATATATTAATACACACACGATATGTACAAAA [CACACA_site539]”, the “gcPBM binding intensity (ln)” value is reported as 8.06 ± 0.43.
For “GAATAAATTGTATTGTGTACATATAAAAGCATCTAA [XGTACX_site8271]”, the “gcPBM binding intensity (ln)” value was 7.93 ± 0.4.
For “TATAAATATACAAAGGTGCATAAAAAGTTATGTTTT [GTGCAC_site9832]”, the “gcPBM binding intensity (ln)” value was 11.2 ± 0.26.
“TTTCTATAATATTCTACACACCAACAACAAACATAT [CACACA_site6409]” was tested, and the “gcPBM binding intensity (ln)” value was 8.29 ± 0.33.
For “TTTCGAATTAAAGCATGTGAAAATTTTCAAAAAATA [XGTACX_negctrl_site577]”, the “gcPBM binding intensity (ln)” value was 7.78 ± 0.61.
With “GAATCACTAATTTTTTTACACACCACAATTTAATTT [CACACA_site8311]” the “gcPBM binding intensity (ln)” value was 8.21 ± 0.74.
For “ACAAAACATAATTGTTGTACAAAAAGAATTATATAT [XGTACX_site8422]”, the “gcPBM binding intensity (ln)” value was 8.18 ± 0.52.
“ATAATAATATAATATTCACACAATTGAAATAGTGTA [CACACA_site6083]” was tested, and the “gcPBM binding intensity (ln)” value was 7.54 ± 0.49.
For “AAATAAAAATTACAAGCATGCATTTTCCTATTTGCA [TGCATGCA_site861]”, the “gcPBM binding intensity (ln)” value was 7.84 ± 0.88.
For “GTGTAAAAATTAAAGTGTACACATATATATATATAT [XGTACX_site2251]”, the “gcPBM binding intensity (ln)” value was 9.6 ± 0.3.
“AAGTTAATGTTTTGCGCACACTTCTTTTTAATATAA [CACACA_site3938]” was tested, and the “gcPBM binding intensity (ln)” value was 9.18 ± 0.23.
With “TTCTTTATATAAACAAGTACATATAAAATACATATA [XGTACX_site8036]” the “gcPBM binding intensity (ln)” value was 7.8 ± 0.41.
In the case of “ACAGCTCTAGGACATGCATGTTATATAGAAAAAGAG [TGCATGCA_site703]”, the “gcPBM binding intensity (ln)” value is reported as 8.39 ± 0.61.
In the case of “AAATACATATTTAGAAGTACATTTATACATTTAATA [XGTACX_site8871]”, the “gcPBM binding intensity (ln)” value is reported as 7.59 ± 0.43.
For “TTCATTAAAGTTATTACACACAGTTCTTCAACCAAA [CACACA_site7613]”, the “gcPBM binding intensity (ln)” value was 7.88 ± 0.46.
For “ATTTTTTCTTATAAAAAAGAAAAAGAAAAAGAAAAA [CACACA_negctrl_site1216]”, the “gcPBM binding intensity (ln)” value was 7.96 ± 0.49.
For “TATATATTAAGATGCACACACAAGAAGTAATTATAA [CACACA_site5726]”, the “gcPBM binding intensity (ln)” value was 8.68 ± 0.54.
For “GATGAGGACAGACACACACACATAAGTTGATACATA [CACACA_site7580]”, the “gcPBM binding intensity (ln)” value was 8.12 ± 0.33.
In the case of “TTTTTTTCTTAAAGATGTACTTTTTAAAAACAATCT [XGTACX_site986]”, the “gcPBM binding intensity (ln)” value is reported as 7.79 ± 0.43.
In the case of “AGACATATTCTTTTTACACACTTGAATAAAAAATAT [CACACA_site1205]”, the “gcPBM binding intensity (ln)” value is reported as 7.94 ± 0.47.
In the case of “CATTTTATAAAAACAAGTACCCAACATATATATAAT [XGTACX_site5955]”, the “gcPBM binding intensity (ln)” value is reported as 7.82 ± 0.47.
“GTTTTTACTTTTATCTGTACATAATACTACCAATAT [XGTACX_site5414]” was tested, and the “gcPBM binding intensity (ln)” value was 8.27 ± 0.43.
“TGCCTATGACATGAATGTACATTAAAATTAAATAAA [XGTACX_site7126]” was tested, and the “gcPBM binding intensity (ln)” value was 7.55 ± 0.44.
“GTTGGGTAATTCGTAACACACATAAAATATATATAA [CACACA_site3986]” was tested, and the “gcPBM binding intensity (ln)” value was 7.89 ± 0.44.
In the case of “CACGCGCACCAACACACACACACACCCATATATATA [CACACA_site2204]”, the “gcPBM binding intensity (ln)” value is reported as 8.82 ± 0.47.
With CTGTACACTTAAACGGTGCAAAAAGAAAAAAAAGAA the “gcPBM binding intensity (ln)” value was 11 ± 0.38.
In the case of “TATATATAATATGAATGTACACAAAAAGGTAATACA [XGTACX_site6202]”, the “gcPBM binding intensity (ln)” value is reported as 8.22 ± 0.42.
With “AAAAAAAAGAAATAGACACACATATATTTTTAAACA [CACACA_site3954]” the “gcPBM binding intensity (ln)” value was 7.5 ± 0.61.
With TGATATAAAATTAAAGTGCAAAAAAAAAATAAAAAA the “gcPBM binding intensity (ln)” value was 10.06 ± 0.078.
With “ATAATATTATGAACCTGTACATAATTTTTCTTTTCT [XGTACX_site3377]” the “gcPBM binding intensity (ln)” value was 7.53 ± 0.5.
In the case of “TATAATTTTTTTGAATTATATATATATATATATAAT [XGTACX_negctrl_site26]”, the “gcPBM binding intensity (ln)” value is reported as 7.82 ± 0.4.
In the case of “AGTATATTTCTAACTTGTACGAAATTAATAATTTAT [XGTACX_site6635]”, the “gcPBM binding intensity (ln)” value is reported as 7.62 ± 0.29.
“TAATTAAATAAAAAAAAATATATATATATATATATA [XGTACX_negctrl_site616]” was tested, and the “gcPBM binding intensity (ln)” value was 9.43 ± 0.45.
With “TTTTTTAAAAATAACTGTACAGAGGCTGTTAGGATA [XGTACX_site2521]” the “gcPBM binding intensity (ln)” value was 8.2 ± 0.38.
For “AGACAATATTAATAAGGTACACATATATATTAAAAA [XGTACX_site6709]”, the “gcPBM binding intensity (ln)” value was 7.98 ± 0.38.
“AGCCCTTTTTTTTTTTAGAATATTGCATAATTATAT [XGTACX_negctrl_site546]” was tested, and the “gcPBM binding intensity (ln)” value was 8.03 ± 0.7.
In the case of “GTATTGTATGGATGGGGTACTATATATATATATTTT [XGTACX_site1694]”, the “gcPBM binding intensity (ln)” value is reported as 8.77 ± 0.49.
In the case of “TATATAAATATATCCACACACATACCTATATTAATA [CACACA_site6184]”, the “gcPBM binding intensity (ln)” value is reported as 7.83 ± 0.33.
“TTTATATGTTTTAAGTGTACACATATAATGTATTTT [XGTACX_site3069]” was tested, and the “gcPBM binding intensity (ln)” value was 7.92 ± 0.28.
In the case of “TAAGGGAGAGATTTGTATCATAAGCAACTTTCAAAA [CACACA_negctrl_site1436]”, the “gcPBM binding intensity (ln)” value is reported as 7.71 ± 0.23.
With “TTATAATTAAATTTCACACAGTTCATAACATAATTA [CACACA_site5501]” the “gcPBM binding intensity (ln)” value was 7.55 ± 0.49.
In the case of ACTTTCAACATGAAGTTGCACTTTTTTTTTTTTCTT, the “gcPBM binding intensity (ln)” value is reported as 8.74 ± 0.91.
“ATTATTAAAAATATGGGTACATATTATTGTTATATA [XGTACX_site1958]” was tested, and the “gcPBM binding intensity (ln)” value was 7.59 ± 0.2.
With “CACACTTGCTCCTGTTGTACATAACCATAAGCAACA [XGTACX_site2102]” the “gcPBM binding intensity (ln)” value was 8.24 ± 0.49.
With “TGAATATAACAAATATGTACTTAAAATTGTTATATT [XGTACX_site5679]” the “gcPBM binding intensity (ln)” value was 7.59 ± 0.46.
With “TAAAGAAATAAATACATACACACATATATATATATA [CACACA_site3363]” the “gcPBM binding intensity (ln)” value was 9.48 ± 0.53.
With “AAACTTTACATTACTTGTACATATATTCTATATAAT [XGTACX_site8640]” the “gcPBM binding intensity (ln)” value was 8.01 ± 0.59.
